The values below come from paper PMC6212790.

The list shows a part of the results. At the low end of the ranking the order means little.

The target of the assay is T1, GST-Rok (full length) (UniProt O34857).
T1 sequence: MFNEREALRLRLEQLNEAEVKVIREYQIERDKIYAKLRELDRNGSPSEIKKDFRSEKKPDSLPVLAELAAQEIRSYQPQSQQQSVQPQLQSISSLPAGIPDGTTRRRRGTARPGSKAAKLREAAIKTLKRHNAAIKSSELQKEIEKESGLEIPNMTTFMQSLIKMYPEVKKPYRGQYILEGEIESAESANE
Briefly: protein binding microarray.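 Note: rank score from −0.5 (least bound) to 0.5 (best bound).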 The following applies: Rok is a gene silencer of Bacillus subtilis; high values mean tight binding; most listed sequences are background and not binding sites; double strand, one strand shown.
In the case of AGTCTGTC, the binding signal was -0.191 E-score.
Sequence TAGGTTAA showed a binding signal of -0.0308 E-score.
Consider CAAGAGTA, for which the binding signal came to 0.064 E-score.
CCTTTGCC: the binding signal was -0.279 E-score.
In turn, CTCTAAGA displayed a binding signal of -0.218 E-score.
The value for AGGGCCAA was -0.217 E-score.
Sequence ACCAGGTC showed a binding signal of -0.146 E-score.
Under GAACATTC stands 0.142 E-score; under GTTTAGGA, -0.106 E-score.
AACTGGAT yielded a binding signal of 0.0867 E-score.
The sequence GGCCGTCA registered a binding signal of -0.121 E-score.
Regarding ACGTAGGA, the binding signal is -0.0621 E-score.
On to AAGAAATG, for which the binding signal was -0.0824 E-score.
Under AGCGCTTA stands -0.136 E-score; under CGTGTGTA, -0.151 E-score.
For AACCCTTG, the binding signal is -0.285 E-score.
Under GAGTGATA stands 0.244 E-score; under CACTCCGG, -0.138 E-score; under AGCAGTTG, 0.0352 E-score.
The value for GGATCACA was -0.0818 E-score.
The value for CCGGGGCA was -0.325 E-score.
In turn, CTACTTTC had a binding signal of 0.287 E-score.
The value for CCCTCCGC was -0.385 E-score; that for AAAGAGTA was 0.0389 E-score; that for ACCTTAGT was -0.00126 E-score.
Regarding GTGAAGGA, the binding signal was -0.312 E-score.
CGATGAAC registered a binding signal of -0.25 E-score.
As for CAAAGAAC, the binding signal came out at 0.124 E-score.
Under CTTACTAA stands 0.222 E-score; under ACCAACCT, 0.177 E-score; under TACCCAGA, 0.0326 E-score.
In the case of AGACAGAT, the binding signal was found to be 0.046 E-score.
AAACTAGA registered a binding signal of 0.355 E-score.
In turn, AGTTCGTG had a binding signal of 0.008 E-score.
Under TCGACTAA stands 0.00662 E-score; under CCAATTAC, -0.00853 E-score; under GAATCACA, 0.141 E-score.
The value for AAAGTGGT was 0.122 E-score.
In turn, AGAGGCGC came in with a binding signal of -0.324 E-score.
Under ACTCGCCT stands -0.139 E-score.
Under AACCCACT stands 0.0541 E-score; under CGGACGAG, -0.248 E-score; under GACAAAGC, -0.181 E-score.
TCTTGAAA returned a binding signal of -0.187 E-score.
The value for CGAGCGAG was -0.138 E-score.
The value for GATGGAGA was -0.0862 E-score.
TAAACCAA gave a binding signal of 0.0841 E-score.
On to ACTCAGGA, for which the binding signal was 0.0154 E-score.
Sequence AAGCCGGA gave a binding signal of -0.186 E-score.
Sequence GCGAGGGA yielded a binding signal of -0.365 E-score.
Under ACCGTAAA stands 0.118 E-score.
Under GGCTCAAC stands -0.242 E-score.
Under GACCACGA stands -0.147 E-score; under CACTCAAG, -0.0729 E-score; under GCAACGGC, -0.254 E-score.
On to CCGGACCC, for which the binding signal was -0.282 E-score.
Under ACACCATG stands 0.138 E-score.
The sequence ATGTGATC gave a binding signal of 0.0995 E-score.
Under CACCGATC stands -0.0461 E-score.
The value for CCAGTAGC was 0.286 E-score; that for AAGTTTGA was -0.0342 E-score; that for GGAAGAAC was -0.151 E-score.
The value for CTCGTGGA was -0.327 E-score; that for TAGTACCA was 0.166 E-score.
Take CAGGGAGC: the binding signal is -0.205 E-score.
The value for CACGACCG was -0.0612 E-score; that for CCATAACG was 0.0703 E-score; that for CAGATCCC was -0.178 E-score.
The value for AAATGCCG was 0.135 E-score; that for AATGAACG was -0.0464 E-score; that for ATAAGGTA was 0.166 E-score.
In turn, AGTGCGGC showed a binding signal of -0.198 E-score.
In turn, CCATATCC yielded a binding signal of -0.0185 E-score.
The value for GTCGGTGA was -0.0245 E-score.
The value for CAGGCTAA was -0.122 E-score; that for CGCAGTGA was -0.145 E-score.
For the sequence CTGGTCGC, the binding signal is -0.191 E-score.
Turning to CCAACACG, the binding signal is -0.133 E-score.
Under AAACACTT stands -0.0627 E-score.
Under GGAGACAA stands -0.141 E-score.
Under CACGATAG stands 0.202 E-score; under GCTCCGAC, -0.214 E-score.
The sequence CCATCCCA gave a binding signal of -0.168 E-score.
The value for ACGACTTG was 0.0118 E-score.
The value for GGTTACAC was -0.0803 E-score.
Under GGGTGAAA stands -0.0595 E-score; under CCTTTTAG, 0.0515 E-score.
Sequence ACCCTCCA returned a binding signal of -0.218 E-score.
Under AACCAACC stands 0.0319 E-score.
CGACACCC yielded a binding signal of -0.162 E-score.
The value for CCAGCAGG was -0.316 E-score; that for AAAGATAT was 0.279 E-score.
GTTACATA registered a binding signal of 0.212 E-score.
As to ACCCCCCT, the binding signal was -0.329 E-score.
The value for AAAACCAC was -0.0525 E-score; that for GAGGGTCA was -0.214 E-score.
Turning to ACTTTAGC, the binding signal is -0.0146 E-score.
The value for CAGGAGTA was 0.0478 E-score.
The value for ACACGGCC was -0.0951 E-score.
Sequence CTTCACCA came in with a binding signal of -0.0521 E-score.
As for GAATGACA, the binding signal was -0.0175 E-score.
Sequence CCCTTCCG came in with a binding signal of -0.327 E-score.
As for ACCGCGAC, the binding signal is -0.17 E-score.
For the sequence GTACGTTA, the binding signal is 0.172 E-score.
For ACGTAGAT, the binding signal amounted to 0.222 E-score.
The value for AAGTGCAA was -0.0282 E-score.
As for CATATACC, the binding signal was 0.259 E-score.
Under AGGTCAAC stands -0.126 E-score.
Consider CGAACCTC, for which the binding signal was -0.283 E-score.
In turn, CGTCAGAG came in with a binding signal of -0.137 E-score.
Under CATCCAGA stands -0.144 E-score.
GAATGTTA gave a binding signal of 0.193 E-score.
As to GATCGTAA, the binding signal was determined as 0.0795 E-score.
Under ATGACTTA stands 0.0476 E-score; under ATGGAAGG, -0.164 E-score; under ATTCTACA, 0.42 E-score.
As for AGCAGGCT, the binding signal is -0.201 E-score.
The value for TGAACGAA was -0.0172 E-score.
Consider AAGACGCT, for which the binding signal is -0.222 E-score.
In turn, AAACTTGT gave a binding signal of 0.115 E-score.
Sequence GCGTCTAA came in with a binding signal of -0.0399 E-score.
Under ATGAGTTA stands 0.2 E-score.
Take ATGTTAAC: the binding signal was 0.306 E-score.
Under CTACGGAG stands -0.00543 E-score; under CGCAGATC, -0.0229 E-score; under ATTCACCA, 0.141 E-score.
For AGCGGCAG, the binding signal was -0.241 E-score.
With ATAGACCG, the binding signal was -0.0219 E-score.
TCAGATCA gave a binding signal of -0.0715 E-score.
Sequence TACCACAA yielded a binding signal of 0.181 E-score.
Sequence TAACCGCA came in with a binding signal of 0.0326 E-score.
The value for GCGAGTAC was -0.0426 E-score.
The value for GGGTGCTA was -0.128 E-score; that for ACCTCCTG was -0.317 E-score.
AGACCGCA: the binding signal is -0.00565 E-score.
The value for GTGTAGGA was 0.198 E-score; that for CCAGTACG was -0.124 E-score.
Under GTCAGAAC stands 0.172 E-score; under GACATCCC, -0.312 E-score.
Under AGCGTTGA stands -0.216 E-score; under GTATGGAA, 0.0118 E-score; under AATTCGCA, 0.18 E-score.
On to GCGAAAGC, for which the binding signal is -0.317 E-score.
Regarding CACTGTGA, the binding signal is 0.129 E-score.
On to AGCTTAAG, for which the binding signal was -0.121 E-score.
The value for AGGCCTAG was -0.0148 E-score.
The value for ATCCCGAG was -0.157 E-score; that for ATACCACG was 0.232 E-score; that for CCGTGGTC was -0.181 E-score.
Take ACCAAAAG: the binding signal was -0.115 E-score.
The value for ACATGTCG was 0.0488 E-score.
The value for AATCCAGT was 0.114 E-score; that for ACACTTTC was 0.106 E-score; that for AAAAAGCG was -0.126 E-score.
Under GGGAGCCC stands -0.403 E-score.
Regarding AAGTGGCA, the binding signal was 0.0388 E-score.
Under AAGTAGTG stands 0.126 E-score; under ACGGGAGC, -0.364 E-score; under ATGTTCGA, 0.105 E-score.
Under CACCGGAA stands 0.00917 E-score; under ATAGGTTC, 0.155 E-score.
Under CTGTCGTA stands 0.0464 E-score; under ACCCCATC, -0.177 E-score.
The sequence ACCTCCAA returned a binding signal of -0.0283 E-score.
Under GCGGAGCC stands -0.201 E-score; under AGGCCATA, -0.25 E-score; under CACTAAGA, -0.0489 E-score.
In the case of GTAAAGGA, the binding signal is -0.155 E-score.
In turn, ATAAGAAG gave a binding signal of 0.0899 E-score.
Under GCGATCGA stands 0.0346 E-score; under CACGGTAC, 0.135 E-score.
Under AAAGATCG stands -0.00269 E-score; under ATACAATA, 0.359 E-score.
On to GAGGTAGA, for which the binding signal was 0.296 E-score.
GACACGCC gave a binding signal of -0.111 E-score.
The value for CCACGAAG was -0.16 E-score; that for CAACCTCG was -0.0289 E-score.
Consider CGCCCACC, for which the binding signal is -0.362 E-score.
As to CAGCGAAG, the binding signal was -0.0825 E-score.
With ACTGCACT, the binding signal came out at 0.089 E-score.
The value for AGGATACG was 0.00378 E-score.
Under CATGTCTA stands -0.0151 E-score; under GTTGAGCA, -0.121 E-score.
The sequence CGAGAGAC had a binding signal of -0.0317 E-score.
The value for AGTACACT was 0.164 E-score; that for GATGCATA was 0.164 E-score; that for CTTTTGGA was -0.106 E-score.
The sequence CAATGCAA had a binding signal of -0.0262 E-score.
The sequence AGTTCTCA gave a binding signal of 0.015 E-score.
Under CGCAGCTA stands -0.0732 E-score; under CGGGGCAC, -0.224 E-score; under CAACTTGC, 0.141 E-score.
With CTAGTCGC, the binding signal was found to be 0.0265 E-score.
Under GAAGTAGA stands 0.167 E-score.
In turn, GAGCAACA displayed a binding signal of -0.0374 E-score.
GGCCTATA had a binding signal of 0.0364 E-score.
On to GAGCTTCA, for which the binding signal was -0.242 E-score.
Under GGAGGGCA stands -0.377 E-score; under CCGTGTGA, -0.134 E-score; under GCGAGACC, -0.186 E-score.
Sequence ACTTCCAC returned a binding signal of 0.0279 E-score.
Under GAACAATA stands 0.0553 E-score; under ATATGACG, 0.182 E-score.
The sequence CTACGCCA returned a binding signal of 0.00514 E-score.
The sequence AAGATAGC came in with a binding signal of 0.0426 E-score.
GTAGTAAC gave a binding signal of 0.321 E-score.
Under TATATCCA stands 0.24 E-score; under ACGATCAG, -0.146 E-score; under ACACAAGG, -0.226 E-score.
Under GTGTCGAA stands 0.0353 E-score.
The value for ATTTAACC was 0.0809 E-score; that for GCTACGTA was 0.298 E-score.
In the case of CATGGCGA, the binding signal was -0.0801 E-score.
The value for ACCTACGC was -0.112 E-score; that for CCCATTCG was -0.187 E-score.
In turn, AAGCACTG had a binding signal of -0.261 E-score.
Under CCCCATTA stands -0.239 E-score; under AGCTTTGA, 0.079 E-score.
The value for CAGCTATA was 0.275 E-score.
